Source: PubChem BioAssay AID1671193 (National Center for Advancing Translational Sciences (NCATS), 2021)
“And” between values parts separate entries of the source, which are not always exact repeats. Equal entries are not always repeated. In all, about 150,000 compounds went through this assay and about 180 (0.12%) were called active. Inconclusive results, whose numbers are uncertain, are shown with a selection of clear calls. Calls come from the whole dose curve; as a rule, active = well fitted cell-killing curve with a large enough effect; inconclusive = small, poorly fitted or top-dose-only effect, or effect the other way; inactive = flat fitted curve, though single readings scatter. Potencies beside an inconclusive call are fits to weak or partial responses and may not hold up.

test: GF-AFC viability counterscreen for inhibitors of alpha-synuclein gene (SNCA) expression; details: HEK-293-SNCA-luc viability, GF-AFC fluorescence, 24 h; activity change, negative = cytotoxicity: at 57.1 µM (top of the series) unless noted; note: nearly all actives have a fitted effect of over 30% in size;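 for activity change, negative = cytotoxicity: 0% = DMSO-treated cells and -100% = medium-only wells without cells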
Summary of the method: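 HEK-293-SNCA-luc cells (1500/well) plated 24 h, then exposed 24 h to a dilution series; GF-AFC added 30 min at 37C, fluorescence 405/540 nm; normalised to medium-only and DMSO wells, Hill fit.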
Potency is the fitted concentration of half-maximal effect; tags give direction and shape of the fitted curve.

Q: For `CCN(CC)CCNC(=O)c1ccc(NC(C)=O)cc1`, which Potency is on record?
A: The Potency was inconclusive: 39.8 µM [cytotoxic, single point].

Q: What about the activity change, negative = cytotoxicity of the same compound?
A: The activity change, negative = cytotoxicity was inconclusive: 87.7% [at 23.9 µM].

Q: For `COc1ccc(C(=O)N2CC(CNC(=O)N3CCCC3)C3(CCOCC3)C2)cc1` (configuration not stated), which Potency is on record?
A: Its Potency is “inactive”.

Q: With `CCOCc1nc(C2CCCN2S(=O)(=O)c2ccccc2C)no1` (configuration not stated) as the compound, how does the Potency read?
A: The Potency was “inactive”.

Q: Which Potency does the source give for `Cc1nc(Nc2n[nH]c3c2CN(C(=O)N[C@H](CN(C)C)c2ccccc2)C3(C)C)c2sccc2n1` here?
A: Its Potency is inconclusive: 3.04 µM [cytotoxic, partial curve] and inconclusive: 13.4 µM [cytotoxic, partial curve, poor fit].

Q: With `COc1cc(NC(=O)c2nnn(Cc3ccc(F)cc3)c2N)cc(OC)c1` as the compound, how does the Potency read?
A: Its Potency is inconclusive: 2.24 µM [cytotoxic, full curve, poor fit].

Q: With `CC(C)SCC(=O)N1CCCn2nc(C(=O)Nc3ccccc3)cc2C1` as the compound, how does the Potency read?
A: Its Potency is “inactive”.

Q: Which Potency does the source give for `CCOc1ccn(-c2ccc(F)cc2)c(=O)c1C(=O)Nc1ccc(Oc2ccnc(N)c2Cl)c(F)c1` here?
A: The Potency was inconclusive: 21.5 µM [cytotoxic, partial curve].

Q: Which Potency does the source give for `CC1CCCN(c2ncnc3c2CN(c2ccccc2F)C(=O)CN3C)C1` (configuration not stated) here?
A: The Potency was inconclusive: 12.6 µM [cytotoxic, partial curve, poor fit].

Q: For `CCn1cc(-c2ccnc3[nH]c(-c4cccc(CN(C)C)c4)cc23)c(-c2ccc(NC(=O)N(C)C)cc2)n1`, which Potency is on record?
A: Its Potency is inconclusive: 0.607 µM [cytotoxic, full curve, poor fit].

Q: With `CCOC(=O)c1cnn(-c2ccc(OC)cc2)c1C1CCN(C(=O)OC(C)(C)C)CC1` as the compound, how does the Potency read?
A: Its Potency is inconclusive: 8.91 µM [cytotoxic, full curve, poor fit].

Q: With `Cc1nn2c(c1-c1ccccc1Oc1ccccc1)N(Cc1ccc(C(=O)O)s1)CCC2` as the compound, how does the Potency read?
A: Its Potency is inconclusive: 10 µM [cytotoxic, partial curve, poor fit].

Q: With `COc1ccc(Nc2ccnc(N3CCC(N[S+](=O)([O-])c4ccc(C)cc4)CC3)n2)cc1` as the compound, how does the Potency read?
A: Its Potency is inconclusive: 25.1 µM [cytotoxic, single point].

Q: Which Potency does the source give for `CCc1nc(CN2CC[C@@H](c3ccc4c(c3)OCO4)[C@H](O)C2)c(C)[nH]1` here?
A: The Potency was “inactive”.

Q: Which Potency does the source give for `Cc1ccc(C(=O)Nc2c(-c3ccccc3)nc3ccccn23)cc1C` here?
A: Its Potency is inconclusive: 8.91 µM [cytotoxic, full curve, poor fit].

Q: With `CC(C)c1ccc(CC(=O)N2CCCc3ncc(C(=O)Nc4ccccc4)cc32)cc1` as the compound, how does the Potency read?
A: The Potency was inconclusive: 56.2 µM [cytotoxic, single point].

Q: Which Potency does the source give for `CC1=NS(=O)(=O)N(Cc2ccccc2)C=C1C(=O)OCc1noc(-c2ccccc2C)n1` here?
A: The Potency was “inactive”.

Q: With `O=C(CSc1nc2nccnc2c(=O)n1CCc1c[nH]c2ccccc12)Nc1ccccc1F` as the compound, how does the Potency read?
A: Its Potency is inconclusive: 39.8 µM [cytotoxic, single point].

Q: With `COc1ccc(OC)c(NC2=C(c3ccccc3)C(=O)c3ccccc32)c1` as the compound, how does the Potency read?
A: Its Potency is inconclusive: 31.6 µM [cytotoxic, partial curve, poor fit].

Q: Which Potency does the source give for `COc1ccc(Cn2c(=O)c(C(=O)N3CCC(C#N)CC3)nc3cccnc32)cc1` here?
A: Its Potency is “inactive”.

Q: Which Potency does the source give for `O=C(C1CCCN(c2nc3ncccc3o2)C1)N1CCN(c2ncccn2)CC1` (configuration not stated) here?
A: The Potency was “inactive”.

Q: With `Cc1ccc(NC(=O)C2CCCN(c3cnn(Cc4ccccc4)c(=O)c3)C2)c(C)c1` (configuration not stated) as the compound, how does the Potency read?
A: Its Potency is inconclusive: 3.55 µM [cytotoxic, partial curve, poor fit].

Q: For `CCc1nc2c(=O)n(CC(=O)NCc3cccc(Cl)c3)nc(C)c2s1`, which Potency is on record?
A: Its Potency is “inactive”.

Q: For `O=C(NCCc1noc(-c2cccnc2)n1)NC1CCCCC1`, which Potency is on record?
A: The Potency was inconclusive: 3.16 µM [cytotoxic, single point].

Q: With `C/C=C/C=C/C=C/C(=O)OC1C=C(C=O)C(O)(C(=O)O)C2(C)CCCC(C)(C)C12` (configuration not stated) as the compound, how does the Potency read?
A: The Potency was inconclusive: 18.4 µM [cytotoxic, single point].

Q: For `CN(Cc1ccco1)C(=O)c1ccc2c(c1)N(Cc1ccccc1F)C(=O)c1ccccc1S2`, which Potency is on record?
A: Its Potency is inconclusive: 31.6 µM [cytotoxic, partial curve, poor fit].

Q: For `COc1cccc(-c2nc(NCc3ccccc3OC)c3ccccc3n2)c1`, which Potency is on record?
A: Its Potency is inconclusive: 7.08 µM [cytotoxic, full curve, poor fit].

Q: With `Cc1nn(-c2ccc(C(C)C)cc2)c(C)c1[C@@H]1C=C[C@@H](NCc2cccc(C#N)c2)C1` as the compound, how does the Potency read?
A: Its Potency is inconclusive: 56.2 µM [cytotoxic, single point].

Q: For `CNc1cc(C2CC(NS(=O)(=O)c3ccc(Cl)s3)C2)nc(N)n1` (configuration not stated), which Potency is on record?
A: Its Potency is “inactive”.

Q: Which Potency does the source give for `O=C(NCc1cccs1)c1nc2sccn2c1-c1ccncc1` here?
A: Its Potency is inconclusive: 35.5 µM [cytotoxic, single point].

Q: Which Potency does the source give for `COc1ccccc1-c1ncc2c(n1)OCCN(Cc1ccc(F)cc1F)C2=O` here?
A: Its Potency is “inactive”.

Q: With `Cc1cnc(CC2CCN(C(=O)C3CC3)C2)n1CC1CC1` (configuration not stated) as the compound, how does the Potency read?
A: The Potency was inconclusive: 0.708 µM [cytotoxic, full curve, poor fit].

Q: Which Potency does the source give for `O=C(Nc1cc(F)cc(F)c1)c1cnc(-c2ccc(F)cc2)nc1-c1ccncc1` here?
A: The Potency was inconclusive: 39.8 µM [cytotoxic, single point].

Q: For `COc1ccc(C2C=C(c3cccc(OC)c3)Nc3c(C(=O)Nc4ccccc4)cnn32)cc1` (configuration not stated), which Potency is on record?
A: Its Potency is inconclusive: 22.4 µM [rising, single point].

Q: Which Potency does the source give for `CCn1cc(-c2ccc(Cl)cc2)cc1C(=O)N1CCN(C(C)C)CC1` here?
A: Its Potency is “inactive”.

Q: For `O=C(N[C@@H]1CN(c2ncccn2)C[C@H]1CO)c1cc2ccccc2[nH]1`, which Potency is on record?
A: Its Potency is “inactive”.

Q: For `CC(=O)N1c2nc(C(C)C)nn2C2(CCCCC2)[C@@H]2CCCC[C@@H]21`, which Potency is on record?
A: Its Potency is inconclusive: 14.1 µM [cytotoxic, partial curve, poor fit].

Q: For `CC(C)C[C@H](NC(=O)CNC(=O)c1cc(Cl)ccc1Cl)B(O)O`, which Potency is on record?
A: Its Potency is inconclusive: 1.92 µM [cytotoxic, full curve].

Q: With `CCNc1ncc2nc(-c3cccs3)c(=O)n(C[C@H]3CCCO3)c2n1` as the compound, how does the Potency read?
A: Its Potency is inconclusive: 8.91 µM [rising, partial curve].

Q: For `CC[C@H]1CN2CCc3cc(OC)c(OC)cc3[C@@H]2C[C@@H]1C[C@H]1NCCc2cc(OC)c(OC)cc21`, which activity change, negative = cytotoxicity is on record?
A: The activity change, negative = cytotoxicity was inconclusive: -45.3%.

Q: Which Potency does the source give for `CCN(CC)CCN(Cc1ccc(-c2ccc(C(F)(F)F)cc2)cc1)C(=O)Cn1c(SCc2ccc(F)cc2)nc(=O)c2c1CCC2` here?
A: Its Potency is inconclusive: 37.7 µM [cytotoxic, single point].

Q: For `Cc1cc(Nc2ccc(C)c(Cl)c2)n2nc(Cc3ccccc3)nc2n1`, which Potency is on record?
A: The Potency was “inactive”.

Q: For `COc1cc(NC(=O)N2C[C@@H](F)C[C@H]2C(=O)N2CCCCC2)cc(OC)c1`, which Potency is on record?
A: The Potency was inconclusive: 11.2 µM [cytotoxic, partial curve, poor fit].

Q: With `O=S1(=O)CCN(Cc2cc(NCC3CCOCC3)c3[nH]c(-c4ccccc4)cc3c2)CC1` as the compound, how does the Potency read?
A: The Potency was “inactive”.

Q: With `CCc1nnc2ccc(NC(C)C)nn12` as the compound, how does the Potency read?
A: The Potency was inconclusive: 6.31 µM [cytotoxic, single point].

Q: For `COc1ccc(C(=O)N2CCCN(C)c3ccccc32)c(OC)c1`, which Potency is on record?
A: Its Potency is inconclusive: 3.98 µM [cytotoxic, full curve].

Q: Which Potency does the source give for `COc1ccc(C(=O)Nc2ccc3n(c2=O)C[C@H]2C[C@@H]3CN(C(=O)CCCC(=O)O)C2)cc1` here?
A: The Potency was “inactive”.

Q: Which Potency does the source give for `CC1=C(C(=O)Nc2cc3cn[nH]c3cc2F)C(c2ccc(Cl)cc2F)N=C(c2ccnc(Cl)c2)N1` (configuration not stated) here?
A: The Potency was inconclusive: 37.7 µM [cytotoxic, single point].

Q: Which Potency does the source give for `Cc1ccc2c(Nc3ccc(Cl)cc3)nccc2c1Nc1ncccc1-c1ncnc2nc[nH]c12` here?
A: Its Potency is inconclusive: 21.2 µM [cytotoxic, partial curve, poor fit].

Q: For `Cc1cccc(C)c1OCCn1c(CCNC(=O)C2CCCCC2)nc2ccccc21`, which Potency is on record?
A: Its Potency is inconclusive: 39.8 µM [cytotoxic, single point].

Q: Which Potency does the source give for `COc1ccc(NC(=O)C2CCc3nnc(CNC(=O)NC(C)(C)C)n32)cc1` (configuration not stated) here?
A: Its Potency is inconclusive: 3.16 µM [cytotoxic, full curve, poor fit].

Q: For `COc1ccc(C(=O)Oc2c(Sc3ccccc3)c(C)nn2-c2ccccc2)c(OC)c1`, which Potency is on record?
A: Its Potency is inconclusive: 31.6 µM [cytotoxic, single point].

Q: For `COc1ccc(CNC(=O)CCC2N=C3c4ccccc4N=C(SCC(=O)NCCc4ccc(OC)c(OC)c4)N3C2=O)cc1` (configuration not stated), which Potency is on record?
A: Its Potency is inconclusive: 17.8 µM [cytotoxic, partial curve, poor fit].

Q: With `O=C(C1CCCN1C(=O)c1ccc(Cl)nc1)N1CCC(c2nc3ccncc3[nH]2)C1` (configuration not stated) as the compound, how does the Potency read?
A: Its Potency is “inactive”.

Q: For `COc1ccc(Oc2ncc3nc(-c4ccccc4)c(=O)n(CCC#N)c3n2)cc1`, which Potency is on record?
A: The Potency was inconclusive: 10 µM [cytotoxic, partial curve].

Q: Which Potency does the source give for `O=C(O)CCn1ncc2cc(OC3CCN(C(=O)OC4CCCC4)CC3)ccc21` here?
A: The Potency was “inactive”.

Q: With `CCN1c2cc(C(=O)NCc3ccccc3C(F)(F)F)ccc2C(=O)N2CCCCCC21` (configuration not stated) as the compound, how does the Potency read?
A: The Potency was inconclusive: 5.62 µM [rising, single point].

Q: For `CSc1cccc(NC(=O)Cn2cccc2-c2nc(-c3ccc4c(c3)OCO4)no2)c1`, which Potency is on record?
A: The Potency was “inactive”.

Q: With `COc1cccc(NC(=O)[C@@H]2C[C@@H](c3ccc(F)cc3)N(CCOc3ccccc3)C2)c1` as the compound, how does the Potency read?
A: Its Potency is inconclusive: 56.2 µM [cytotoxic, single point].

Q: With `CCCNC(=O)N1CCCN(C(=O)C2CC2)C(c2ccccc2)CC(=O)NCC1` (configuration not stated) as the compound, how does the Potency read?
A: Its Potency is inconclusive: 11.2 µM [rising, partial curve, poor fit].

Q: Which Potency does the source give for `Cc1nc2cnc3ccc(C#Cc4cccnc4)cc3c2n1-c1ccc(C(C)(C)C#N)cc1` here?
A: Its Potency is inconclusive: 0.764 µM [cytotoxic, full curve, poor fit].

Q: With `Cn1ccnc1-c1ccc(N2CCCC(CO)(Cc3cccc(Cl)c3)C2)nn1` (configuration not stated) as the compound, how does the Potency read?
A: The Potency was inconclusive: 22.4 µM [cytotoxic, partial curve, poor fit].
